Reference: PubChem BioAssay AID588342 (National Center for Advancing Translational Sciences (NCATS), 2011)
Hit rate of the full screen: of about 360,000 compounds, about 25,000 (6.9%) were called active. Inconclusive results, whose numbers are uncertain, are shown with a selection of clear calls. Calls come from the whole dose curve; as a rule, active = well fitted inhibition curve with a large enough effect; inconclusive = small, poorly fitted or top-dose-only effect; inactive = flat fitted curve, though single readings scatter. Where the call is inconclusive, the potency comes from a doubtful curve fit.

The compounds below were run against Luciferin 4-monooxygenase (Photinus pyralis) (UniProt P08659) (assay: qHTS profiling assay for firefly luciferase inhibitor/activator using purifed enzyme and Km concentrations of substrates (counterscreen for miR-21 project)). Conditions: purified FLuc, luminescence inhibition; series mostly up to 57.5 µM.
Method in brief: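 Purified P. pyralis luciferase (10nM final) with 10uM D-luciferin and 10uM ATP (Km levels) in 50mM Tris acetate pH 7.5, 10mM Mg acetate, 0.01% Tween-20, 0.05% BSA; qHTS 6-point titration, ~60 µM downward; luminescence read.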
Note: nearly all actives have a fitted effect of over 55% in size.
Potency is the fitted concentration of half-maximal effect; tags give direction and shape of the fitted curve.

Chain of UniProt P08659 (P08659 whole entry, looked up): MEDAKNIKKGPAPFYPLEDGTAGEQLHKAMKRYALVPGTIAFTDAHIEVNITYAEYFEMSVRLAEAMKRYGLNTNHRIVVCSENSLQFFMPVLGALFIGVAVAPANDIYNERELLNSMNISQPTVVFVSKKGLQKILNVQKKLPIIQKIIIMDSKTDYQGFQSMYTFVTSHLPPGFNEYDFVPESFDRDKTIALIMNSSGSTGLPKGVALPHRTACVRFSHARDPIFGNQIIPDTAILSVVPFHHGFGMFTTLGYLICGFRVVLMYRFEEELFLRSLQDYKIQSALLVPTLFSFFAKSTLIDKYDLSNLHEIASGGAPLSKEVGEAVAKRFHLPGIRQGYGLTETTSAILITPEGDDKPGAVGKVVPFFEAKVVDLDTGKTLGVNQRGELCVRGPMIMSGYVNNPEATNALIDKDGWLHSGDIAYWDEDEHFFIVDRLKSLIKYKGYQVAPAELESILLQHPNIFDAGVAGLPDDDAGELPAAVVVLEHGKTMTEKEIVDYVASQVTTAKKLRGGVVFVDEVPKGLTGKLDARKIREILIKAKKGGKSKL

Row | SMILES | Potency
1 | Cc1ccc(NC(=O)c2cc(=O)n(Cc3ccccc3)c(=O)[nH]2)cc1C | inconclusive: 7.57 µM [inhibitor, partial curve, poor fit]
2 | O=C(c1cn(-c2ccccc2)nc1-c1ccccc1)N1CCN(c2ccccn2)CC1 | active: 10.7 µM
3 | Cc1cccc(-c2nc(CS(=O)CC(=O)NCCc3ccc(Cl)cc3)c(C)o2)c1 (stereo not drawn) | inactive
4 | O=C(NCc1cccnc1)c1ccc(COc2ccc(Cl)cc2Cl)o1 | inconclusive: 37.9 µM [inhibitor, single point]
5 | CCOC(=O)Cc1csc(NC(=O)/C=C\c2ccccc2Cl)n1 | active: 1.51 µM
6 | Cc1cccc(Cn2c(-c3cccs3)nc3ccccc32)c1 | inconclusive: 37.9 µM [inhibitor, partial curve, poor fit]
7 | CCc1nc(SCc2cc(=O)c3cc(F)ccc3[nH]2)n[nH]1 | inactive
8 | COC(C/C=C/C(=O)COCc1ccccc1)OC | inconclusive: 23.9 µM [inhibitor, single point]
9 | O=C(Nc1nc2c(Cl)cccc2s1)C1CC1 | inconclusive: 37.9 µM [inhibitor, partial curve, poor fit]
10 | COc1ccc(NC(=O)CN(C)C(=O)c2cc(-c3ccccc3)nc3ccccc23)cc1 | inconclusive: 15.1 µM [inhibitor, partial curve]
11 | COC(=O)c1sccc1N/N=C(\C)c1ccc(F)c(Cl)c1 | inconclusive: 6.01 µM [inhibitor, partial curve, poor fit]
12 | Oc1oc(-c2ccc(Br)cc2)nc1/C=N/c1ccccn1 | inconclusive: 12 µM [inhibitor, partial curve]
13 | COc1ccc(C(=O)N2CCc3cc(OC)c(OC)cc3C2c2ccc(OC)c(OC)c2)cc1 (stereo not drawn) | inactive
14 | O=C(O)COc1ccc(/C=N/NC(=O)c2ccc(-c3csc(Nc4ccc(Cl)cc4)n3)cc2)cc1 | inconclusive: 16.9 µM [inhibitor, partial curve]
15 | CC(C)(C)c1ccc(C(=O)NCC(=O)OCC(=O)NC(=O)NC2CCCC2)cc1 | inconclusive: 21.3 µM [inhibitor, partial curve, poor fit]
16 | CC(Cc1cccnc1)NC(=O)c1ccccc1OC1CCN(S(C)(=O)=O)CC1 (stereo not drawn) | inactive
17 | O=C(Nc1cccc2cccnc12)c1cc(F)c(F)cc1Cl | inconclusive: 26.9 µM [inhibitor, single point]
18 | CCOC(=O)C(=NC1CCS(=O)(=O)C1)NNc1ccccc1Cl (stereo not drawn) | active: 16.9 µM
19 | O=C(OCCN1CCCCC1)c1ccc(Cl)cc1 | inconclusive: 30.1 µM [inhibitor, partial curve, poor fit]
20 | O=C(Nc1ccc(N2CCCCC2)c(Cl)c1)c1ccc(N2CCOCC2)c([N+](=O)[O-])c1 | inconclusive: 9.53 µM [inhibitor, partial curve]
21 | COc1ccc(-c2nc(NC(=O)c3nc4nccc(C)n4n3)sc2C)cc1 | inconclusive: 21.3 µM [inhibitor, partial curve, poor fit]
22 | CCOC(=O)c1csc(N/N=C2\CCc3ccccc32)n1 | inconclusive: 26.9 µM [inhibitor, single point]
23 | CCn1cc(/C=C/c2cc[n+](C)cc2)c2ccccc21 | inactive

Row | SMILES | Potency
24 | Cn1ccnc1SCC(=O)Nc1ccc2c(c1)OCO2 | inconclusive: 37.9 µM [inhibitor, single point]
25 | CCOC(=O)c1ccc(NC(=O)c2nsc3ccccc23)cc1 | active: 2.39 µM
26 | COC(=O)c1ccc2c(c1)C(=O)/C(=C/c1ccc(O)cc1)O2 | inconclusive: 7.57 µM [inhibitor, full curve]
27 | COc1ccc(C(=O)c2sc(Nc3ccccc3)nc2N)cc1OC | inconclusive: 37.9 µM [inhibitor, partial curve, poor fit]
28 | CN1CCc2nc3sc(C(=O)Nc4c(F)cccc4F)c(N)c3cc2C1 | inconclusive: 16.9 µM [inhibitor, single point]
29 | C=CCN1C(=O)C(Cc2ccc(SC(F)F)cc2)SC1=Nc1ccc(C(=O)O)cc1 (stereo not drawn) | inconclusive: 19 µM [inhibitor, partial curve, poor fit]
30 | O=C(NCc1cccs1)c1cc2c(s1)-c1ccccc1OC2 | inconclusive: 21.3 µM [inhibitor, single point]
31 | Cc1ccc(-c2cnc(NCc3c(F)cccc3Cl)n2C)cc1 | inconclusive: 26.9 µM [inhibitor, partial curve]
32 | NS(=O)(=O)c1cccc(NC(=O)COC(=O)c2cc(-c3ccc(Cl)cc3)nc3ccccc23)c1 | inconclusive: 26.9 µM [inhibitor, single point]
33 | CCOC(=O)c1cc(S(=O)(=O)N2CCN(c3cc(Cl)ccc3C)CC2)[nH]n1 | inconclusive: 19 µM [inhibitor, partial curve, poor fit]
34 | c1cncc(CNc2ccc3c(c2)OCO3)c1 | inactive
35 | Cc1nn(-c2ccc(N3CCCCC3)nn2)c(C)c1CCC(=O)Nc1ccccc1F | active: 19 µM
36 | CC(C)NC(=S)N/N=C/c1cc(Br)ccc1O | inconclusive: 37.9 µM [inhibitor, partial curve, poor fit]
37 | O=C(N/N=C/c1cccc(Oc2ccccc2)c1)c1cccc(Br)c1 | inconclusive: 12 µM [inhibitor, partial curve, poor fit]
38 | CC(=O)C1=C(O)C(=O)N(C)C1c1ccccc1[N+](=O)[O-] (stereo not drawn) | inactive
39 | CC(C)N(Cc1c(O)ccc2c(=O)c(-c3ccc(Cl)cc3)coc12)C(C)C | inconclusive: 37.9 µM [inhibitor, partial curve, poor fit]
40 | COc1ccccc1NS(=O)(=O)c1cc(NC(=O)C2CCC2)ccc1N1CCCCC1 | inconclusive: 42.6 µM [inhibitor, partial curve, poor fit]
41 | CCCC(=O)Nc1cccc(-c2nc3ncccc3o2)c1 | inactive
42 | CC(=O)Nc1ccc(/C=N/Nc2nncc3ccccc23)cc1 | active: 12 µM
43 | CCOc1ccc2c(O)csc2c1 | inconclusive: 26.9 µM [inhibitor, single point]
44 | Cc1ccccc1OCc1nnc(SCC(=O)Nc2ccc(N3CCOCC3)cc2)n1C | inconclusive: 3.01 µM [inhibitor, partial curve, poor fit]
45 | CC(C)[C@H](NC(=O)[C@@H]1Cc2ccccc2CN1)C(=O)Nc1ccc2c(c1)OCO2 | inconclusive: 23.9 µM [inhibitor, partial curve, poor fit]
46 | Cc1ccc2nc(-c3ccc(NC(=O)CN4C(=O)c5ccccc5C4=O)cc3)sc2c1 | active: 2.69 µM

Row | SMILES | Potency
47 | Nc1nc(SCc2nnc(SCC(=O)O)n2-c2ccccc2)nc2sc3c(c12)CCCC3 | inconclusive: 23.9 µM [inhibitor, single point]
48 | O=C(NCc1ccco1)c1nc(-c2ccc(F)cc2)no1 | inconclusive: 26.9 µM [inhibitor, partial curve, poor fit]
49 | Nc1c(NCc2ccccc2)c(=O)[nH]c(=O)n1Cc1ccccc1 | inconclusive: 30.1 µM [inhibitor, single point]
50 | O=C(Cc1cccs1)N/N=C\c1ccc(O)cc1 | inconclusive: 37.9 µM [inhibitor, partial curve, poor fit]
51 | Cc1ccc(CSc2nc3ccncc3n2Cc2nc(-c3ccc(Cl)cc3)oc2C)cc1 | inconclusive: 3.79 µM [inhibitor, full curve]
52 | COc1ccc(NC(=S)NC(=O)c2ccccc2)cn1 | active: 13.5 µM
53 | O=C(NC(=S)Nc1ccccc1C(=O)O)c1cncc(Br)c1 | inconclusive: 37.9 µM [inhibitor, partial curve, poor fit]
54 | O=C1NC(=Nc2ccccc2)S/C1=C/c1cccnc1 | inconclusive: 30.1 µM [inhibitor, single point]
55 | CC1CCCCN1C(=O)CSc1nnc(-c2ccccc2O)o1 (stereo not drawn) | active: 21.3 µM
56 | CCOC(=O)Cn1cc(/C=C(/C#N)C(=O)NC(C)C)c2ccccc21 | inconclusive: 33.8 µM [inhibitor, single point]
57 | O=C(Nc1cccnc1)c1cnc2ccccc2n1 | inconclusive: 21.3 µM [inhibitor, partial curve, poor fit]
58 | Clc1ccc(Cn2nnc(-c3ccc(N4CCOCC4)cc3)n2)cc1 | inconclusive: 23.9 µM [inhibitor, partial curve, poor fit]
59 | CC(=O)Nc1ccc(NC(=O)CSc2nnc(C)c(=O)[nH]2)cc1 | inactive
60 | Cc1ccc(-c2nc3sc(CCNC(=O)c4ccco4)c(C)n3n2)cc1 | active: 13.5 µM
61 | O=C(O)c1cccc2cc(-c3ccccc3)oc(=O)c12 | inconclusive: 37.9 µM [inhibitor, partial curve, poor fit]
62 | Cc1ccc(C(=O)Nc2cc3cc(Cl)ccc3oc2=O)cc1 | inconclusive: 9.53 µM [inhibitor, partial curve]
63 | CCc1cccc(NC(=O)c2sc3nc4n(c(=O)c3c2C)CCC4)c1 | active: 16.9 µM
64 | C/C(=N\NC(=O)c1ccccc1F)c1ccccn1 | active: 2.39 µM
65 | CN(C)c1ccc(/C=N/NC(=S)NCc2ccccc2)cc1 | inconclusive: 23.9 µM [inhibitor, single point]
66 | CC(OC(=O)c1cnc2ccccc2n1)c1ccccc1Cl (stereo not drawn) | inconclusive: 26.9 µM [inhibitor, partial curve, poor fit]
67 | Fc1ccc(NCc2n[nH]c(=S)n2Cc2ccccc2)cc1 | inconclusive: 26.9 µM [inhibitor, partial curve, poor fit]
68 | NC(=O)c1ccsc1NC(=O)c1ccc(S(=O)(=O)N2CCCc3ccccc32)cc1 | inactive
